We go through 89 compounds from publication PMC4336329 (PLoS ONE, 2015).

The campaign covered roughly 310,000 compounds. About 2,200 (0.71%) showed an effect of 50% or more. Effects have a minus sign here. This is one part of the list.

The target of the assay is human ether-à-go-go-related gene (hERG) potassium channel (human, UniProt Q12809). As to the kind of experiment: primary screen, population patch clamp on CHO cells stably expressing hERG.
human ether-à-go-go-related gene (hERG) potassium channel, sequence (Q12809 whole entry, looked up): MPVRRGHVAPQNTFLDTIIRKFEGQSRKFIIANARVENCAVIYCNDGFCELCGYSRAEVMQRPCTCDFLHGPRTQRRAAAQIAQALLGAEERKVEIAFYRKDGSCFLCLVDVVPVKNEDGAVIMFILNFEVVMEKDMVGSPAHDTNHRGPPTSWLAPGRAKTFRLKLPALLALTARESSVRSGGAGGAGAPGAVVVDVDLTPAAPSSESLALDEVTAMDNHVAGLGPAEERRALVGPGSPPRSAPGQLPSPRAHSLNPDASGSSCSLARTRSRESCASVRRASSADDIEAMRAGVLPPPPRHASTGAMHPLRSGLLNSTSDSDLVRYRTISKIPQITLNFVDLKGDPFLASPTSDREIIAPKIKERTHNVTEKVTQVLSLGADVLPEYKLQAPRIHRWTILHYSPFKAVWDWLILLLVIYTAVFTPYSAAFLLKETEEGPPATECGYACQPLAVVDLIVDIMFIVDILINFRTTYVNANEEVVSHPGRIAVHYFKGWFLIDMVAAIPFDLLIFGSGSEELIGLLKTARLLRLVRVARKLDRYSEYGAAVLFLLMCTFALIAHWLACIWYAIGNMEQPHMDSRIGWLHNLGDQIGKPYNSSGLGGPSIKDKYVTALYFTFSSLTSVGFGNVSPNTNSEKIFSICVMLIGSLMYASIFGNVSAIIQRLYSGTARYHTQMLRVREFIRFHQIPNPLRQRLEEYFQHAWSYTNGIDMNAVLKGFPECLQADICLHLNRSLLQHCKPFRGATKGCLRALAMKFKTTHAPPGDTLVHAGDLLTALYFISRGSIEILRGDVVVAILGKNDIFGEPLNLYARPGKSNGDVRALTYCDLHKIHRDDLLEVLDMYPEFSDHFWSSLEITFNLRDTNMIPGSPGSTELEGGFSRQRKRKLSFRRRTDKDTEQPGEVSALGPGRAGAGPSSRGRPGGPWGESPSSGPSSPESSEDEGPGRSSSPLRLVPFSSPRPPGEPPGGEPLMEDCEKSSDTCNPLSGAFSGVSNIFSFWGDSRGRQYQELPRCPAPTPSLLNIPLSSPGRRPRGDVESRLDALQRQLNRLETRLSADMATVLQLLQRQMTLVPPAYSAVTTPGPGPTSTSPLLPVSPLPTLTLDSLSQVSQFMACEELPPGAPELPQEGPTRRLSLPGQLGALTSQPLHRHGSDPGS
In the case of `NC(=O)C1CCN(C(=O)Cc2ccsc2)CC1`, the “hERG current change (%, negative = inhibition) at 1uM” value is listed as 5.53%.
The value for `COc1cccc(OCc2cc(C(=O)N3CCC(c4ccncc4)CC3)no2)c1` was -0.65%.
The figure for `Cc1cc(C)nc(SCc2nnc(SCC(N)=O)o2)n1` is 5.92%; for `CCCCCC(=O)N/N=C/c1cc(Br)c(O)c(OC)c1` it is 10.8%.
The figure for `CCN1CCN(Cc2nc3c(c(=O)n(C)c(=O)n3C)n2C(C)C(C)=O)CC1` (centres unmarked) is 20.2%.
For `COc1ccccc1CCC(=O)Oc1ccc(C#N)cc1OC`, the “hERG current change (%, negative = inhibition) at 1uM” value was found to be 7.54%.
The value for `COC(=O)c1ccc(/C=N/NC(=O)C2CC(=O)N(c3ccc(F)cc3)C2)cc1` (centres unmarked) was 16.8%; that for `CCOC(=O)Nc1cc(C(=O)OC)ccc1C` was 4.24%.
The figure for `Cc1ccc2[nH]c(=S)cc(C)c2c1` is 14.7%.
The figure for `CSc1nnc(C)c(=O)n1COC(=O)c1ccc(S(=O)(=O)N2CCCC2)cc1` is -19.4%.
As to `CC(=O)NC(Cc1ccccc1F)C(=O)NC1CCN(C(=O)NCc2ccccc2)CC1` (centres unmarked), the “hERG current change (%, negative = inhibition) at 1uM” value is 3.12%.
In the case of `O=C(O)/C=C\C(=O)Nc1ccccc1C#Cc1ccccc1`, the “hERG current change (%, negative = inhibition) at 1uM” value was 9.27%.
For the compound `O=c1ccc(=O)n(-c2ccccc2)[nH]1`, the “hERG current change (%, negative = inhibition) at 1uM” value stood at 11.9%.
The figure for `COc1ccc(CCN(C(=O)c2ccco2)C(C(=O)NC2CCCC2)c2ccncc2)cc1OC` (centres unmarked) is -14.3%.
The figure for `COC(=O)Cn1ncc(N2CC(C)OC(C)C2)c(Cl)c1=O` (centres unmarked) is 15.7%; for `CC(C(=O)NCc1ccccn1)c1ccc([N+](=O)[O-])cc1` (centres unmarked) it is -0.451%; for `COc1ccc2cc(C(C)C(=O)O)ccc2c1` (centres unmarked) it is 9.27%.
The value for `Cn1c(CN2CCN(c3cccc(Cl)c3)CC2)nc2ccccc21` was -8.92%; that for `CCC(Oc1ccccc1)C(=O)Nc1ccc(S(=O)(=O)Nc2cnc3ccccc3n2)cc1` (centres unmarked) was -1.44%.
`O=C(NCc1ccco1)c1nn(-c2ccccc2)c(=O)c2ccccc12`: the “hERG current change (%, negative = inhibition) at 1uM” value is reported as -7.78%.
The figure for `COc1ccc(-c2nc(CS(=O)CC(=O)NCCN3CCCCC3C)c(C)o2)cc1OC` (centres unmarked) is 14.7%.
The figure for `Cn1nc(-c2ccc(Cl)cc2)c2cc(C(=O)NCc3ccco3)sc21` is 0.219%; for `CC(Sc1nc(-c2ccccc2)cc(C(F)(F)F)n1)C(=O)O` (centres unmarked) it is 11.3%; for `Cc1ccc2oc(=O)n(CCCOc3ccccc3)c2c1` it is 8.51%.
The value for `COc1cc(S(C)=O)ccc1-c1nc2ncccc2[nH]1` (centres unmarked) was 6.39%; that for `Cc1ccc(C2=NOC(c3nnc(-c4ccccc4)o3)C2)cc1` (centres unmarked) was 5.56%.
Turning to `Cc1ccc(SCC(=O)NC(=O)Nc2ccc3c(c2)OCCO3)c(C)c1`, the “hERG current change (%, negative = inhibition) at 1uM” value was 4.47%.
For `Cc1ccc(C)c(/C=N/n2cc(-c3ccccc3)[nH]c2=S)c1`, the “hERG current change (%, negative = inhibition) at 1uM” value was 16.7%.
The figure for `CC1(C)Oc2cc3oc(-c4cc(O)cc(O)c4)cc3cc2CC1O` (centres unmarked) is 11.4%.
Consider `CCC1COCCS(=O)(=O)N1Cc1ccccc1` (centres unmarked), for which the “hERG current change (%, negative = inhibition) at 1uM” value amounted to 9.21%.
The value for `CN(C)S(=O)(=O)c1cccc(COc2ncnc3c(Cl)cc(Cl)cc23)c1` was 17.4%.
The value for `O=C(CN1C(=O)CCC1=O)c1ccc(-c2ccccc2)cc1` was 2.14%; that for `COc1cc(C2C(C#N)=C(N)N(c3sc4c(c3C#N)CCCC4)C3=C2C(=O)CC(C)(C)C3)cc(OC)c1OC` (centres unmarked) was -0.174%; that for `COc1cc2c(cc1OC)CN(C(=O)C(C)(C)C)CC2` was 14.9%.
The value for `CCC[C@@H](CN[C@@H](CNC)[C@H](C)CC)NCC1CCC(C(C)(C)C)CC1` (some centres unmarked) was 4.79%.
Regarding `Nc1c(C(=O)Nc2ccc3c(c2)OCCO3)nnn1Cc1ccccc1`, the “hERG current change (%, negative = inhibition) at 1uM” value stood at 6.93%.
With `COc1ccc(OC)c(NC(=O)CSc2nncc3ccc(OC)c(OC)c23)c1`, the “hERG current change (%, negative = inhibition) at 1uM” value stood at 12.3%.
The figure for `O=C(NNC(=O)c1ccccc1Br)c1ccncc1` is 11.4%.
For `COc1cccc(-c2nc(-c3ccccc3)c(-c3ccccc3)[nH]2)c1OCC(=O)O`, the “hERG current change (%, negative = inhibition) at 1uM” value worked out at 8.4%.
The value for `COc1cc(C(=O)N(Cc2ccc(N(C)C)cc2)C2CCS(=O)(=O)C2)cc(OC)c1OC` (centres unmarked) was 5.87%; that for `COc1ccc(S(=O)(=O)NCCc2ccccc2)cc1` was -4.73%.
The value for `COc1ccc(CCNC(=O)CN2CCN(Cc3ccccc3F)C2=O)cc1OC` was 9.49%; that for `O=C(CNC(=O)c1ccccc1)OC1CCCCC1` was 2.83%.
The figure for `S=C(NCc1ccco1)Nc1ccc(Cl)cc1` is 1.21%; for `COc1ccc(N(C(=O)Cn2nnc(-c3ccc(C)o3)n2)C(C(=O)NC2CCCC2)c2ccncc2)cc1` (centres unmarked) it is 13.6%.
With `O=C(CNC(=O)c1ccc(N2C(=O)c3ccccc3C2=O)cc1)OCC(=O)c1cccc2ccccc12`, the “hERG current change (%, negative = inhibition) at 1uM” value stood at 2.88%.
The value for `Cc1cc(C)nc(/N=C2\NC(=O)CC(C(=O)O)N2c2ccc(F)c(Cl)c2)n1` (centres unmarked) was 13.4%; that for `CC(C)OC(=O)CC(=O)CSc1nc2c(cc1C#N)CCCC2` was 10.4%; that for `CCCCc1n[nH]c2c1/C(=N/O)CC(C)(C)C2` was 6.67%.
The value for `CN(C)S(=O)(=O)c1cccc(NC(=O)COC(=O)c2cc3ccccc3oc2=O)c1` was 3.77%; that for `CCc1ccccc1NC(=O)CN(c1ccc(OC)cc1OC)S(=O)(=O)c1ccccc1` was 14.3%.
Consider `CCc1cccc(CC)c1NC(=O)/C(C#N)=C/c1ccccc1C(F)(F)F`, for which the “hERG current change (%, negative = inhibition) at 1uM” value is 13.7%.
The figure for `CCC(C)(C)NC(=O)C(c1ccc(F)cc1)N(Cc1ccco1)C(=O)c1cnccn1` (centres unmarked) is 5.46%; for `O=C(NCCNc1ccc(Cl)cc1[N+](=O)[O-])c1ccccc1F` it is 16.3%; for `O=C(Cn1cnc2c(oc3ccccc32)c1=O)NCc1ccco1` it is 6.01%.
Take `Cc1cc(/C=C2/NC(=O)NC2=O)c(C)n1-c1sc2c(c1C#N)CCCC2`: the “hERG current change (%, negative = inhibition) at 1uM” value was 6.68%.
Take `COc1ccc(NC(=O)/C(Cl)=C(/Cl)S(=O)Cc2ccccc2)cn1` (centres unmarked): the “hERG current change (%, negative = inhibition) at 1uM” value was 15.7%.
The figure for `O=C(Nc1ccccc1F)NC1CC1` is 14.1%; for `O=C1CCCCCN1Cc1ccccc1` it is 5.9%.
For `CC(C)CC1(C(=O)NCc2cc(F)cc(C(F)(F)F)c2)C=CCN1C(=O)c1ccccc1` (centres unmarked), the “hERG current change (%, negative = inhibition) at 1uM” value came out at 16.4%.
Regarding `CCOC(=O)c1sc(NC(=O)C2CC(=O)N(c3ccc(OCC)cc3)C2)nc1C` (centres unmarked), the “hERG current change (%, negative = inhibition) at 1uM” value amounted to 15.4%.
The value for `OCC1(Cc2cccc(Cl)c2)CCCN(Cc2sc(N3CCCC3)nc2Cl)C1` (centres unmarked) was 9.46%; that for `COC(=O)[C@H](Cc1ccccc1)NC(=O)O[C@H]1C(=O)c2ccc(OC)cc2O[C@@H]1c1ccc2c(c1)OCO2` was 0.0735%; that for `Oc1ccc(-c2onc3ccc(Cl)cc23)cc1` was 0.54%.
The value for `COCc1cc(C)nc(SCC[N+](C)(C)CC(=O)Nc2cccc(C)c2)c1C#N.[Cl-]` was 6.27%; that for `O=C1C=C(c2ccc(Oc3ccccc3)cc2)C[C@@H](c2ccc3c(c2)OCO3)C1` was 9.67%; that for `CCC(=O)Nc1ccc(C(=O)NNC(=O)c2ccccc2)cc1` was 0.95%.
In the case of `CCOc1cc(CNc2ccc3c(c2)OCCO3)cc(Br)c1OCC`, the “hERG current change (%, negative = inhibition) at 1uM” value came to 1.03%.
The figure for `C=CCC1(NCc2ccco2)CCN(CC)CC1.O=C(O)C(=O)O` is -6.99%; for `O=C(Cc1c(F)cccc1Cl)NCC1CCCO1` (centres unmarked) it is 9.07%.
On to `O=C(NCc1ccccc1CN1CCCC1)c1cccc(S(=O)(=O)N2CCOCC2)c1`, for which the “hERG current change (%, negative = inhibition) at 1uM” value is -12.6%.
Turning to `O=C(Nc1nnc(-c2ccccc2F)s1)c1cccnc1`, the “hERG current change (%, negative = inhibition) at 1uM” value is listed as 7.76%.
On to `Cc1ccc(-c2cc(C(=O)NCc3cnn(C)c3)c3cc(Br)ccc3n2)cc1`, for which the “hERG current change (%, negative = inhibition) at 1uM” value was determined as 7.5%.
The figure for `O=C(Oc1cccc2ccccc12)C1CC1` is 10.8%; for `Cc1cc(C)nc(Nc2cccc(Cl)c2)n1.Cl` it is 13.5%; for `Cc1cccc(COc2ccccc2C(=O)OCC(=O)N(C)c2c(N)n(Cc3ccccc3)c(=O)[nH]c2=O)c1` it is 15.9%.
Turning to `Cc1cc2ncn(C(=O)N3CCC(C)CC3)c2cc1C`, the “hERG current change (%, negative = inhibition) at 1uM” value amounted to 7.46%.
The figure for `COc1cc(C(F)(F)F)c(C(=O)N(C)Cc2cc(Cl)cc(Cl)c2)cn1` is 4.99%; for `COc1ccccc1OCCNC(=O)Nc1cc(F)c(F)cc1Cl` it is 14.5%.
On to `CCc1ccc(CN(C)C(=O)CCc2nnc(CCc3ccccc3OC)o2)nc1`, for which the “hERG current change (%, negative = inhibition) at 1uM” value was found to be 0.403%.
The value for `O=[N+]([O-])c1cccc(OCc2cn3cccnc3n2)c1` was 5.95%; that for `CCCCOC(=O)c1nnc(-c2ccc(Cl)cc2)o1` was 11.5%; that for `COc1ccc(C(=O)N2CC(c3ccccc3)CC2=O)cc1` (centres unmarked) was 9.89%.
The value for `CCCN(C(=O)CSc1ncnc2sccc12)c1c(N)n(Cc2ccccc2)c(=O)[nH]c1=O` was 3.78%.
The value for `COc1ccc(-c2nnc(N(C)C(=O)C3CCOC3)s2)cc1` (centres unmarked) was 8.67%; that for `Cc1nc2scc(-c3ccc(C(C)C)cc3)c2c(=O)n1N` was 20.6%.
As to `O=C(CSc1ccc2nnc(-c3cccnc3)n2n1)Nc1ccccc1`, the “hERG current change (%, negative = inhibition) at 1uM” value is on record as 5.35%.
`CC(C)c1nc(CNC(=O)c2ccc(OC3CCN(Cc4ccccn4)CC3)cc2)cs1`: the “hERG current change (%, negative = inhibition) at 1uM” value amounted to 4.67%.
The figure for `CCc1ccc(C(=O)Cc2cc3cccc(OC)c3oc2=O)cc1` is 19.8%.
